# In PubChem BioAssay AID1347417 (National Center for Advancing Translational Sciences (NCATS), 2020):
# Out of some 120,000 compounds screened, about 5,300 (4.4%) were called active. Inconclusive results, whose numbers are uncertain, are shown with a selection of clear calls. Calls come from the whole dose curve; as a rule, active = well fitted inhibition curve with a large enough effect; inconclusive = small, poorly fitted or top-dose-only effect; inactive = no such curve, though single readings can be large or run the other way. A potency beside an inconclusive call is a rough fit, not a confirmed value.
# Test: qHTS Primary assay for Inhibitors of Plasmodium falciparum Dd2 growth in vitro; note: nearly all actives have a fitted effect of over 65% in size;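 for activity, negative = inhibition: plate controls were DMSO vehicle for no effect and reference drug for full effect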
# Conditions: P. falciparum Dd2 growth, SYBR Green, 72 h; activity, negative = inhibition: at 28.9 µM (top of the series) unless noted; series mostly up to 28.9 µM
# Summary of the method: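 Readout: SYBR Green fluorescence, 485 nm excitation, 535 nm emission, after ~16 h lysis at 37C. Before that, Dd2-infected red cells (2.5% hematocrit) grew 72 h with compound, 29 uM top final concentration.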
# Potency is the fitted concentration of half-maximal effect; tags give direction and shape of the fitted curve.
SMILES,Potency,"activity, negative = inhibition"
CC(C)(C)c1ccnc(N[C@H]2CO[C@H]3[C@@H]2OC[C@@H]3NS(=O)(=O)c2cccs2)n1,"inconclusive: 12.6 µM [inhibitor, single point]",
COc1ccc(C(=O)N[C@H]2[C@H](O)[C@H](O)C[C@@H]2c2ccc(C(F)(F)F)nc2)cc1OC,,inactive: 2.37% [at 44.1 µM]
Cc1cccc(-n2cc(-c3ccccc3)c3c(NC(C)C)ncnc32)c1,"inconclusive: 7.08 µM [inhibitor, partial curve, poor fit]",
COc1ccc2c(c1)CCc1sc(NC(=O)c3ccc(Cl)cc3)nc1-2,"inconclusive: 17.8 µM [inhibitor, single point]",
CCC1=Nc2cc(C(=O)NC(C)c3ccccc3)ccc2Sc2ccc(Cl)cc21 (stereo not given),active: 8.91 µM,
O=C(NCc1c[nH]c2ncccc12)c1cccc(Br)c1,"inconclusive: 3.16 µM [inhibitor, single point]",
COc1ccc(C(CNC(=O)c2oc3ccc(Cl)cc3c2C)N2CCCCC2)cc1 (stereo not given),"inconclusive: 11.2 µM [inhibitor, single point]",
O=S(=O)(c1ccccc1Cl)N1CCCC(CO)(Cc2cccc(Cl)c2)C1 (stereo not given),,inactive: -20.7%
COc1cccc(N2CCN(C(=O)c3ccc(Cn4c(=O)[nH]c5cc(OC)c(OC)cc5c4=O)cc3)CC2)c1,"inconclusive: 0.0079 µM [inhibitor, single point]",
CC(C)CCN1CCC2(CC1)CN[S+](=O)([O-])c1cccnc1O2,"inconclusive: 10 µM [inhibitor, single point]",
CCN(CC)Cc1nc(C2(O)CCN(Cc3ccccc3O)CC2)cs1,"inconclusive: 2.82 µM [inhibitor, partial curve]",
CCc1cccc(NC(=O)Cn2c(=O)ccc3cc(S(=O)(=O)N4CCC(C)CC4)ccc32)c1,,inactive: -3.71%
CCOc1ccccc1N1CC(c2nc3ccccc3n2CCOc2ccccc2)CC1=O (stereo not given),,inactive: 11.2%
COCCNC(=O)c1ccc(OC2CCN(Cc3cccc4c3OCO4)CC2)c(Cl)c1,active: 7.08 µM,
O=C(c1ccc2c(c1)N(Cc1ccc(Cl)cc1)C(=O)c1ccccc1S2=O)N1CCOCC1 (stereo not given),,inactive: 1.39%
O=C(NCc1ccccc1)C1CCC(=O)N1C1CCN(C(=O)c2ccc3c(c2)OCO3)CC1 (stereo not given),,inactive: 10.3%
CC(=O)NC1(C)CCN(Cc2ccc(-c3ccc4c(ccn4C)c3)cc2)C1 (stereo not given),active: 10 µM,
CCc1noc([C@@H]2CC(F)(F)CN2C(=O)c2cc(C)no2)n1,,inactive: 19.2%
COc1ccc(-n2cc(C(=O)NCc3ccccc3)c3ccccc3c2=O)cc1,,inactive: -6.96%
COC(=O)c1ccc(CSc2nc3c([nH]c4ccccc43)c(=O)n2-c2ccc(Cl)cc2)o1,"inconclusive: 12.6 µM [inhibitor, single point]",
CCCCNc1nc2c(c(=O)n(Cc3ccc(Cl)cc3)c(=O)n2C)n1C,"inconclusive: 17.8 µM [inhibitor, single point]",
CN(Cc1ccc(F)cc1)C(=O)C1(c2ccc(Cl)cc2)CCOCC1,"inconclusive: 12.6 µM [inhibitor, single point]",

SMILES,Potency,"activity, negative = inhibition"
Cc1ccc(C)c(NC(=O)c2cnn(-c3cccc(F)c3)c2C2CCN(C(=O)OC(C)(C)C)CC2)c1,"inconclusive: 10 µM [inhibitor, partial curve, poor fit]",
O=C(Cn1cc(SCc2c(F)cccc2Cl)c2ccccc21)N1CCCCCC1,,inactive: 1.34%
COc1cc(OC)cc(C(=O)N2CCC(n3cc(-c4nc(C)no4)nn3)CC2)c1,,inactive: -21.7%
Cc1ccc(CNC(=O)N2CCCCCNC(=O)CC2c2ccccc2)cc1 (stereo not given),"inconclusive: 1 µM [inhibitor, full curve, poor fit]",
O=C(c1cnc2n[nH]c(-c3ccccc3)c2n1)N1CCN(c2ccccn2)CC1,"inconclusive: 2.82 µM [inhibitor, single point]",
CC(C)Oc1ccc(CNC(=O)CCCN2C(=O)c3cccnc3Oc3ccc(Cl)cc32)cc1,"inconclusive: 15.8 µM [inhibitor, single point]",
COc1ccccc1-c1[nH]ncc1CN1CCCC(C(=O)NCc2ccccc2)CCNC(=O)CC1 (stereo not given),"inconclusive: 7.94 µM [inhibitor, partial curve, poor fit]",
Cc1cccc(OCCc2noc(C3CCCN3C(=O)C3CCCC3)n2)c1 (stereo not given),"inconclusive: 11.2 µM [inhibitor, single point]",
COc1ccc(CC(=O)N2CCc3cc(OC)c(OC)cc3C2COc2ccc(OC)cc2)cc1 (stereo not given),active: 7.94 µM,
COc1ccc2oc(=O)cc(CN3CCN(Cc4ccccc4)CC3)c2c1,"inconclusive: 17.8 µM [inhibitor, single point]",
CCC1Oc2ccc(NC(=O)c3c(F)cccc3F)cc2CN(Cc2ccc(F)cc2Cl)C1=O (stereo not given),"inconclusive: 1.41 µM [inhibitor, partial curve, poor fit]",
Cc1ccc(C)c(CC(=O)N2CCN(Cc3ccccc3)CC(O)C2)c1 (stereo not given),"inconclusive: 10 µM [inhibitor, single point]",
COc1ccc(CC2CCOC3(CCN(C(=O)Nc4ccccc4F)CC3)C2)cc1 (stereo not given),"inconclusive: 14.1 µM [inhibitor, single point]",
CCn1cc(-c2ccc(OC)cc2)cc1C(=O)NC(C)c1cccnc1 (stereo not given),,inactive: -21.6%
O=C(NCc1c[nH]c2ncccc12)c1ccccc1,"inconclusive: 31.6 µM [inhibitor, single point]",
CC(O)c1cc2n(n1)CCCN(Cc1cccc(OC3CCCC3)c1)C2 (stereo not given),,inactive: -9.31%
CCCN1C(=O)Cc2ccccc2C1C(=O)NCc1cccc(F)c1 (stereo not given),,inactive: -23%
CCC(=O)N1c2ccccc2CC1C(=O)NCCc1ccccc1C (stereo not given),"inconclusive: 15.8 µM [inhibitor, single point]",
CN1CCN(c2ccc(-c3cccc(NC(=O)C4CCCCC4)c3)nn2)CC1,"inconclusive: 20 µM [inhibitor, single point]",
O=C1CCN(S(=O)(=O)c2ccccc2)CCCN(Cc2ccc(C(F)(F)F)cc2)CCN1,"inconclusive: 12.6 µM [inhibitor, partial curve, poor fit]",
O=C(CN1CCCn2nc(CO)cc2C1)Nc1nnc(C2CCC2)s1,"inconclusive: 11.2 µM [inhibitor, single point]",
CN1CCCC2(C1)CN(Cc1cccnc1)c1ccc(C(=O)Nc3ccccc3)cc12 (stereo not given),"inconclusive: 10 µM [inhibitor, partial curve, poor fit]",

SMILES,Potency,"activity, negative = inhibition"
CCc1noc(-c2cn(C3CCCN(C(=O)COc4ccc(F)cc4)C3)nn2)n1 (stereo not given),"inconclusive: 20 µM [inhibitor, partial curve, poor fit]",
CCCN(CC1CC1)C(=O)C1CCN(C(=O)N2CC3CC(C2)[C@H]2CCCC(=O)N2C3)CC1 (stereo not given in full),"inconclusive: 10 µM [inhibitor, single point]",
Cc1cccc(Oc2nc3c(C)cccn3c(=O)c2/C=C(\C#N)c2nc3ccccc3[nH]2)c1,"inconclusive: 20 µM [inhibitor, single point]",
O=C1CCN(Cc2ccncc2)CCCC(C(=O)N2CCc3ccccc32)CCN1 (stereo not given),"inconclusive: 5.01 µM [inhibitor, partial curve]",
COc1cc(-c2cc(OC)c3c(C)oc(C)c3c(=O)c2)ccc1OC(=O)c1ccccc1Cl,"inconclusive: 8.91 µM [inhibitor, single point]",
COc1ccc(CN2C[C@@H]3C[C@H]2C(=O)N(Cc2ccccn2)c2ccccc2O3)cc1,"inconclusive: 31.6 µM [inhibitor, single point]",
CCOCc1nc(C2CCCN2S(=O)(=O)c2c(C)noc2C)no1 (stereo not given),,inactive: -19.2%
COc1cc(Cl)c(NC(=O)CCS(=O)(=O)c2cc3c(cc2Cl)NC(=O)CO3)c(OC)c1,,inactive: 9.58%
CCc1ccccc1NC(=O)c1c(NC(=O)c2ccccc2)sc2c1CCCC2,,inactive: 41.7%
CC(=O)Nc1ccc(C(O)[C@H]2COCC(=O)N2CC2CCCCC2)cc1 (stereo not given in full),,inactive: 17.4% [at 44.1 µM]
CCc1ccc(C(=O)c2cn(CC(=O)Nc3ccc4c(c3)OCO4)c3cc(OC)c(OC)cc3c2=O)cc1,"inconclusive: 17.8 µM [inhibitor, single point]",
CC1=C[C@@H](CNC(C)C)[C@H](C(C)C)C[C@H]1Cc1nnc(-c2ccc(C)cc2)o1,"inconclusive: 0.794 µM [inhibitor, full curve, poor fit]",
Cc1ccc(C)c(N2CCN(C(=O)C3CCCN(S(=O)(=O)c4ccc5c(c4)oc(=O)n5C)C3)CC2)c1 (stereo not given),"inconclusive: 6.31 µM [inhibitor, partial curve, poor fit]",
COc1ccc(-c2nc(C3CC3)nc3c2CCN(Cc2cc(C)on2)CC3)cc1,active: 2.51 µM,
Cc1ccccc1N1CC(c2nc3ccccc3n2CCC2CCCCC2)CC1=O (stereo not given),"inconclusive: 17.8 µM [inhibitor, single point]",
O=C(NCC1CC1)c1cn(C2CN(C(=O)Nc3ccccc3F)C2)nn1,,inactive: 22.4%
COc1ccc(CCn2cc3c(c2-c2ccc(Br)cc2)c(=O)n(C)c(=O)n3C)cc1OC,"inconclusive: 17.8 µM [inhibitor, single point]",
O=C(NCCc1ccccc1Cl)c1ccc(Cn2c(=O)c3cccn3c3cccnc32)cc1,"inconclusive: 7.94 µM [inhibitor, single point]",
Cc1ccc(-c2cc(N3CCC(CNC(=O)c4ccc(N(C)C)cc4)CC3)n[nH]2)cc1,"inconclusive: 0.891 µM [inhibitor, partial curve, poor fit]",
COc1ccc(CCNC(=O)c2nnn3cc(-c4ccccc4)[nH]c(=O)c23)cc1OC,"inconclusive: 6.31 µM [inhibitor, partial curve, poor fit]",
O=[S+]1([O-])NCC2(CCN(Cc3ccsc3)C2)Nc2ccccc21 (stereo not given),"inconclusive: 2 µM [inhibitor, full curve]",
